± gives the uncertainty stated by the source. Whole data set: some 9,900 compounds, median “viability index relative to DMSO control” near 1, cut for the lowest 2% near 0.85. The list shows a part of the results.
Tested on: Plasmodium falciparum NF54 stage V gametocytes
Assay: viability index relative to DMSO control (fraction); higher = less gametocyte killing
Settings: 2.5 µM, library set: Broad Institute DOS, incubation time: 72 h
Experimental: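 Broad DOS informer set and blood-stage-active DOS compounds screened in duplicate at 2.5 µM against P. falciparum NF54 stage V gametocytes with the serum-free one-step SaLSSA (1536-well): 72 h at 37 °C under low oxygen, then saponin lysis and MitoTracker Red CMXRos staining, with high-content imaging. Viability index = viable-object count divided by the plate mean of DMSO wells (0 = killed, about 1 = inactive).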

Compound | viability index
COCC(=O)Nc1ccc2c(c1)C(=O)N(C)[C@@H]1CC[C@@H](CC(=O)NC3Cc4ccccc4C3)O[C@H]1CO2 | 1.17 ± 0.19
CN1CCN(C(=O)C[C@H]2CC[C@@H]3[C@H](COC[C@H](O)CN3Cc3cccc(-c4ccncc4)c3)O2)CC1 | 1.08 ± 0.028
C[C@@H]1CN([C@H](C)CO)C(=O)c2c(c3ccccc3n2C)-c2ccccc2CO[C@@H]1CN(C)Cc1cccc(C(F)(F)F)c1 | 0.89 ± 0.041
CN(C)C(=O)c1ccc(-c2ccc([C@H]3[C@@H]4CN(Cc5ccccc5Cl)C[C@H]3N4)cc2)cc1 | 0.846 ± 0.021
C/C=C/c1ccc([C@H]2[C@H]3CNC[C@@H]2N3Cc2ccc3c(c2)OCO3)cc1 | 0.918 ± 0.068
CN1C(=O)c2cc(NS(=O)(=O)c3cccc(F)c3)ccc2OC[C@H]2O[C@@H](CC(=O)NCCN3CCCCC3)CC[C@@H]21 | 1 ± 0.012
C[C@@H]1CN([C@@H](C)CO)C(=O)c2cc(-c3ccc(F)cc3)cnc2O[C@@H]1CN(C)S(C)(=O)=O | 0.995 ± 0.18
CC(C)C#Cc1ccc([C@H]2[C@H]3CN(C(=O)Cc4ccccc4)CC(=O)N3[C@H]2CO)cc1 | 1.045 ± 0.0096
CCC(=O)N1C[C@H](O)COC[C@H]2O[C@H](CC(=O)NCc3ccc(Oc4ccccc4)cc3)CC[C@@H]21 | 1.01 ± 0.046
C/C=C/c1ccc([C@H]2[C@H](CO)N3C(=O)CN(C(=O)Nc4ccc(F)cc4)C[C@@H]23)cc1 | 1.07 ± 0.067
COc1ccccc1C#Cc1ccc([C@H]2[C@@H](CO)N3CCCCN(C(=O)C4CCC4)C[C@H]23)cc1 | 0.99 ± 0.017
Cc1noc(C)c1NC(=O)Nc1cccc2c1O[C@@H](CN(C)Cc1ccc(C(=O)Nc3ccccc3N)cc1)[C@H](C)CN([C@H](C)CO)C2=O | 1.06 ± 0.029
COc1cccc(S(=O)(=O)N2CC[C@H]3[C@H](CO)Nc4ccc(C#Cc5cccnc5)cc4[C@H]32)c1 | 1.11 ± 0.082
OC[C@H]1[C@@H](c2ccc(Br)cc2)[C@@H]2CNCCCCN12 | 1.008 ± 0.0039
N#C[C@@H]1[C@H](c2ccccc2-c2ccccc2F)[C@@H](CO)N1C(=O)Cc1ccccc1 | 1.041 ± 0.0077
C[C@@H]1CN([C@H](C)CO)S(=O)(=O)c2ccc(C#CC3(O)CCCC3)cc2O[C@H]1CN(C)C(=O)Nc1cccc(F)c1 | 1.04 ± 0.069
C[C@@H]1CCCCO[C@@H](CN(C)C(=O)Nc2cccc3ccccc23)[C@H](C)CN([C@H](C)CO)C(=O)c2cc(NC(=O)CCC(F)(F)F)ccc2O1 | 0.878 ± 0.094
N#C[C@H]1[C@H](c2ccccc2C2=CCCCC2)[C@@H](CO)N1S(=O)(=O)c1ccccc1 | 0.757 ± 0.1
CC(C)[C@@H]1C/C=C\CCNC(=O)[C@H](C)CC(=O)N1 | 1.02 ± 0.048
C[C@H]1CN([C@@H](C)CO)C(=O)c2ccccc2-c2ccccc2CO[C@@H]1CN(C)C(=O)[C@H](Cc1ccccc1)N(C)C | 1.01 ± 0.074
COc1cccc(CNC(=O)[C@@H]2[C@@H](CO)[C@@H]3Cn4c(ccc(-c5cncnc5)c4=O)[C@@H]3N2C)c1 | 1.08 ± 0.046
COc1cccc(C#Cc2ccc([C@@H]3[C@@H](C#N)N(C(=O)c4ccccn4)[C@@H]3CO)cc2)c1 | 1.15 ± 0.033
O=C(NC1CCCCC1)N1CC(=O)N2[C@H](C1)[C@H](c1ccc(-c3ccncc3)cc1)[C@@H]2CO | 0.998 ± 0.11

Compound | viability index
CN1CCN(C(=O)C[C@@H]2CC[C@@H]3[C@H](COC[C@H](O)CN3CC3CCCCC3)O2)CC1 | 1.086 ± 0.0069
Cc1ccccc1S(=O)(=O)Nc1ccc2c(c1)C(=O)N(C)[C@H]1CC[C@@H](CC(=O)O)O[C@@H]1CO2 | 0.957 ± 0.013
O=C(C[C@@H]1CC[C@H]2[C@@H](COC[C@H](O)CN2Cc2cc(F)cc(F)c2)O1)Nc1nccs1 | 1.02 ± 0.045
COc1ccc2c3c([C@H](CO)N(C[C@]33CN(C3)C(=O)c3cccnc3)C(=O)Nc3ccc(F)cc3)n(C)c2c1 | 1.08 ± 0.059
Cc1noc(C)c1NC(=O)N(C)C[C@@H]1Oc2ccc(NC(=O)CCCN(C)C)cc2C(=O)N([C@H](C)CO)C[C@H]1C | 1.08 ± 0.1
C[C@H](CO)N1C[C@H](C)[C@@H](CN(C)C(=O)Cc2ccccc2)OCCCC[C@H](C)Oc2ccc(NS(C)(=O)=O)cc2C1=O | 1.101 ± 0.0013
O=C(C[C@H]1C=C[C@H](NC(=O)C2CCC2)[C@@H](CO)O1)NC1CCCCC1 | 1.04 ± 0.034
O=C(Nc1cc(F)ccc1F)N[C@H]1CC[C@@H](CC(=O)N2CCc3ccccc3C2)O[C@H]1CO | 1.08 ± 0.14
C[C@@H]1CN([C@H](C)CO)S(=O)(=O)c2ccc(-c3ccc(F)cc3)cc2O[C@H]1CN(C)Cc1ccccc1C(=O)O | 1.03 ± 0.0058
C/C=C/c1ccc([C@@H]2[C@@H](CO)N(C(C)=O)[C@H]2CN(CC)C(=O)CN(C)C)cc1 | 0.987 ± 0.056
C/C=C/c1ccc([C@@H]2[C@H](CO)N(C(=O)c3ccccc3)C23CN(C(C)=O)C3)cc1 | 1.09 ± 0.1
CCCC(=O)Nc1ccc2c(c1)OC[C@@H](C)N(C(=O)c1cccnc1)C[C@@H](C)[C@H](OC)CN(C)C2=O | 0.992 ± 0.12
CCC(=O)N1CC2(C1)[C@@H](c1ccccc1)[C@@H](CO)N2CC1CC1 | 1.08 ± 0.06
CO[C@H](CN(C)C(=O)Nc1ccc(Cl)cc1)[C@@H](C)CN(Cc1ccccc1Cl)[C@@H](C)CO | 1.03 ± 0.047
C[C@H]1C/C=C/C[C@H](c2ccc(F)cc2)NC(=O)[C@@H](Cc2ccccc2)N(C)C(=O)c2ccccc2O1.C[C@H]1C/C=C\C[C@H](c2ccc(F)cc2)NC(=O)[C@@H](Cc2ccccc2)N(C)C(=O)c2ccccc2O1 | 0.909 ± 0.037
O=C(c1ccccn1)N1CC[C@@H]2[C@@H](CO)Nc3ccc(C#Cc4cccnc4)cc3[C@@H]21 | 1.13 ± 0.082
CCCNC(=O)N(C)C[C@@H]1Oc2ncc(C#CC3CCCCC3)cc2C(=O)N([C@@H](C)CO)C[C@@H]1C | 1.14 ± 0.013
C[C@@H]1CN([C@@H](C)CO)C(=O)Cc2cc(NC(=O)c3ccncc3)ccc2O[C@H]1CN(C)C(=O)Nc1ccc(F)cc1 | 0.988 ± 0.11
C[C@@H](NC(=O)C[C@@H]1C=C[C@@H](NS(=O)(=O)c2cccc(F)c2)[C@@H](CO)O1)c1ccccc1 | 1.16 ± 0.03
CN1c2ccc(Br)cc2[C@H]2[C@H](CCN2S(=O)(=O)c2ccccc2F)[C@@H]1CO | 1.03 ± 0.049
O=C(Cc1cccnc1)N1CC(=O)N2[C@H](CO)[C@@H](c3ccc(C#CC4CCCCC4)cc3)[C@@H]2C1 | 1.07 ± 0.032
CO[C@@H]1CN(C)C(=O)c2ccc(NS(=O)(=O)c3ccc(C)cc3)cc2OC[C@H](C)N(C)C[C@H]1C | 1.15 ± 0.063
CO[C@@H]1CN(C)C(=O)c2cc(NS(=O)(=O)c3cccc(Cl)c3)ccc2OC[C@@H](C)NC[C@@H]1C | 1.09 ± 0.04

Compound | viability index
COc1ccc2c3c([nH]c2c1)[C@H](CO)N(Cc1cc(OC)cc(OC)c1)C[C@]31CCN(CC1)C(=O)c1cccnc1 | 1 ± 0.012
COc1ccc2c3c([C@@H](CO)NC[C@]33CN(Cc4ccc(cc4)-c4ccccn4)C3)n(C)c2c1 | 0.997 ± 0.019
O=C(Nc1ccc(F)cc1)N1CC(=O)N2[C@@H](CO)[C@H](c3ccc(C#Cc4cccnc4)cc3)[C@@H]2C1 | 1.11 ± 0.058
C[C@H]1CN([C@@H](C)CO)C(=O)c2cc(NS(=O)(=O)c3cn(C)cn3)ccc2O[C@@H]1CN(C)C(=O)Nc1cccc2ccccc12 | 0.954 ± 0.24
CS(=O)(=O)N1CC(=O)N2[C@H](CO)[C@@H](c3ccc(Br)cc3)[C@@H]2C1 | 1.09 ± 0.032
N#C[C@H]1[C@H](c2ccccc2)[C@@H](CO)N1C(=O)c1cc(Cl)cc(Cl)c1 | 1.09 ± 0.015
CC(C)NC(=O)N1[C@@H]2CNc3ccccc3[C@@H]2[C@@H]1CO | 1.06 ± 0.085
CO[C@@H]1CN(C)C(=O)c2ccc(NC(=O)c3cc(C)on3)cc2OC[C@@H](C)NC[C@H]1C | 1.02 ± 0.026
C[C@@H]1CN([C@@H](C)CO)C(=O)Cc2cc(NC(=O)C3CCCCC3)ccc2O[C@@H]1CN(C)Cc1ccc(Cl)c(Cl)c1 | 1.02 ± 0.22
C/C=C/c1ccc2n(c1=O)C[C@H]1[C@H](CO)[C@@H](C(=O)NCc3ccc4c(c3)OCO4)[C@@H]2N1C(=O)COC.C/C=C\c1ccc2n(c1=O)C[C@H]1[C@H](CO)[C@@H](C(=O)NCc3ccc4c(c3)OCO4)[C@@H]2N1C(=O)COC | 1.01 ± 0.011
COc1ccc2c3c([C@H](CO)NC[C@]33CCN(Cc4cc(F)ccc4F)CC3)n(C)c2c1 | 0.9313 ± 0.0015
C[C@@H]1CN([C@H](C)CO)C(=O)c2c(c3ccccc3n2C)-c2ccccc2CO[C@H]1CN(C)C(=O)NC1CCCCC1 | 0.981 ± 0.12
O=C1[C@H](Cc2ccc(C(F)(F)F)cc2)CCn2nncc2COC[C@H]2CCCCN12 | 1.06 ± 0.025
O=C(C[C@@H]1CC[C@@H]2[C@H](COC[C@@H](O)CN2C(=O)CCN2CCCCC2)O1)NCc1ccncc1 | 1.01 ± 0.055
C[C@@H]1CCCCO[C@@H](CN(C)CC2CCCCC2)[C@@H](C)CN([C@@H](C)CO)C(=O)c2cc(NS(C)(=O)=O)ccc2O1 | 1.15 ± 0.16
O=C(c1ccccc1F)N1CC(=O)N2[C@@H](CO)[C@H](c3ccc(C#Cc4ccccc4)cc3)[C@@H]2C1 | 1.02 ± 0.027
CCCC(=O)Nc1ccc2c(c1)C(=O)N(C)C[C@@H](OC)[C@H](C)CN(Cc1ccc(F)cc1)[C@@H](C)CO2 | 0.882 ± 0.071
CN1C(=O)c2cc(NC(=O)c3cnccn3)ccc2OC[C@H]2O[C@H](CC(=O)N[C@H]3CCN(Cc4ccccc4)C3)CC[C@@H]21 | 1.05 ± 0.038
CCS(=O)(=O)Nc1ccc2c(c1)C(=O)N(C)[C@@H]1CC[C@H](CC(=O)NC3CCCCC3)O[C@H]1CO2 | 1.05 ± 0.047
C[C@@H]1CN([C@@H](C)CO)C(=O)c2cc(C#CC3(O)CCCC3)cnc2O[C@H]1CN(C)S(=O)(=O)c1cccc(F)c1 | 1.08 ± 0.1
CO[C@@H](CN(C)Cc1nccs1)[C@@H](C)CN([C@@H](C)CO)S(=O)(=O)c1ccc(F)cc1 | 1.04 ± 0.0028
COc1ccc2c3c([nH]c2c1)[C@@H](CO)N(C[C@]31CN(C1)C(=O)Cc1cccnc1)S(C)(=O)=O | 1.06 ± 0.048
CN(C)C(=O)c1ccc(-c2ccc([C@H]3[C@@H](C#N)N(C(=O)C4CC4)[C@@H]3CO)cc2)cc1 | 1.13 ± 0.092
